From PMC4336329 (PLoS ONE, 2015)
About 2,200 (0.71%) of roughly 310,000 compounds showed an effect of 50% or more. The effect is printed as a negative number. The list shows a part of the results.

Target: human ether-à-go-go-related gene (hERG) potassium channel (human, UniProt Q12809)
Experiment: primary screen, population patch clamp on CHO cells stably expressing hERG

Chain of human ether-à-go-go-related gene (hERG) potassium channel (Q12809 whole entry, looked up): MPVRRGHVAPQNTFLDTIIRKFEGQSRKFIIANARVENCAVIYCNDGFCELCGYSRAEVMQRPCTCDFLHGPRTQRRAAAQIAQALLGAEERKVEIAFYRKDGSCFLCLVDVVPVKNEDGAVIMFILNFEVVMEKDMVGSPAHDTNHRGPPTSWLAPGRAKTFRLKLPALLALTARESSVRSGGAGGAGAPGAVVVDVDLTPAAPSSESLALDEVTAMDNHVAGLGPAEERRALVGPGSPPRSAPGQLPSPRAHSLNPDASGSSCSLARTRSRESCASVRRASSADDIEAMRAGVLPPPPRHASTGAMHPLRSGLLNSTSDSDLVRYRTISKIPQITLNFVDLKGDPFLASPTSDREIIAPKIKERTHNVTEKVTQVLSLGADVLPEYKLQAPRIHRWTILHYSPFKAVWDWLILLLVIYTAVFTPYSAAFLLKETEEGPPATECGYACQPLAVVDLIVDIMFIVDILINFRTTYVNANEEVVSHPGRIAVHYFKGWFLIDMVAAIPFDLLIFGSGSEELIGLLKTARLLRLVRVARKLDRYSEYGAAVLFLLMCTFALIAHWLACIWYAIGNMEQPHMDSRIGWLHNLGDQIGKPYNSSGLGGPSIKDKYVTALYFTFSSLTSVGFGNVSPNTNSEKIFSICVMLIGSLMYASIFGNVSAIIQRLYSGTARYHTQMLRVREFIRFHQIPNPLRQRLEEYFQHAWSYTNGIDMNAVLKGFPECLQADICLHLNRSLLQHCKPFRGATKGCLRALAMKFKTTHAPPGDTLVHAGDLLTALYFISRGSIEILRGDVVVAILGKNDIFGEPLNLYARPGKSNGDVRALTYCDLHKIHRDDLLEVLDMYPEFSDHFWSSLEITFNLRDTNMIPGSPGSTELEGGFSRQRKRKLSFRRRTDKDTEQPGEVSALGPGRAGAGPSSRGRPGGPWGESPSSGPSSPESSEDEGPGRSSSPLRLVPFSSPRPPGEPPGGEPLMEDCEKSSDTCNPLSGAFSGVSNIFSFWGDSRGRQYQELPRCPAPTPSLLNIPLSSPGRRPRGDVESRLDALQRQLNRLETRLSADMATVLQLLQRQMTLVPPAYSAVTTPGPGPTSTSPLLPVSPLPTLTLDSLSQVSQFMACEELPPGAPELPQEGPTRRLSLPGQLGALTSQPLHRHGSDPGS

| SMILES | hERG current change (%, negative = inhibition) at 1uM |
| --- | --- |
| CCc1nc(SCC(=O)Nc2ccc([N+](=O)[O-])cc2)n[nH]1 | 12.8% |
| COc1ccc(S(=O)(=O)N2CCN=C2SCc2cccc(C)c2)cc1 | 14.1% |
| CN1C(CC(=O)c2ccccc2)CCCC1CC(O)c1ccccc1 (centres unmarked) | -55.2% |
| O=C(COC(=O)C1CC(O)CN1S(=O)(=O)c1ccc(Cl)cc1)c1ccccc1 (centres unmarked) | 11.9% |
| O=C(COC(=O)c1cc(=O)[nH]c2ccccc12)c1ccccc1 | 11.3% |
| CCc1sc(N(C(=O)Cc2ccccc2)c2cccc(F)c2)nc1-c1ccc(C)cc1 | -3.77% |
| Nc1c(C(=O)NCc2ccccc2)c2nc3ccccc3nc2n1-c1ccc2c(c1)OCO2 | 6.37% |
| COC(=O)c1c(N)n(CCCN2CCOCC2)c2nc3ccccc3nc12 | 2.97% |
| COC(=O)c1cc(-c2ccccc2)sc1N | 11.6% |
| CC(C)CCNC(=O)CNC(=S)N(Cc1ccccc1)Cc1cccnc1 | 0.279% |
| CN1CCN(c2ccccc2NC(=O)c2ccc(-c3cccc([N+](=O)[O-])c3)o2)CC1 | -0.213% |
| C=C(C)C(=O)Nc1cccc(C2=NOC3(C2)C[C@@H](C(N)=O)N(C(=O)CC(c2ccccc2)c2ccccc2)C3)c1 (some centres unmarked) | 8.76% |
| O=C(N/N=C/c1ccccc1)c1cc(=O)[nH]c2ccccc12 | 13.9% |
| CCCCn1c(/C=N/Nc2nc3ccccc3[nH]2)nc2ccccc21 | 11% |
| COc1ccccc1C(=O)NCC(=O)N/N=C/c1ccc([N+](=O)[O-])cc1 | 13.5% |
| Nc1nonc1-n1nnc(C(=O)N/N=C/c2ccccc2Cl)c1-c1ccccc1 | 18.9% |
| CC(CCc1ccccc1)NC(=S)NC1CCCCC1 (centres unmarked) | 13.9% |
| Cc1ccc(S(=O)(=O)N(CC(=O)O)Cc2ccco2)cc1 | 17.4% |
| CCc1nnc2sc(-c3ccc(NC(=O)CSc4ccc(Cl)cc4)cc3)nn12 | 13.2% |
| CCOc1ccc2nc(SCC(=O)N3c4ccccc4Sc4ccccc43)c(C#N)cc2c1 | 8.77% |
| C#CCOCCOCCOCCNc1nc(N2CCN(C(=O)[C@H]([C@@H](C)O)n3cc(CCCC[NH3+])nn3)CC2)nc(N2CCN(C(=O)[C@H](CCCC[NH3+])n3cc(CC(C)O)nn3)CC2)n1.[Cl-] (some centres unmarked) | 2.98% |
| O=C1c2cccc3cccc(c23)C(=O)N1CCCn1ccnc1 | 2.55% |

| SMILES | hERG current change (%, negative = inhibition) at 1uM |
| --- | --- |
| CCOc1cccc(N(C(=O)CNC(=O)c2ccco2)C(C(=O)NCC2CCCO2)c2ccccc2)c1 (centres unmarked) | 5.26% |
| c1cnc(-c2noc(CN3CCN(C4C5CC6CC(C5)CC4C6)CC3)n2)cn1 (centres unmarked) | 8.06% |
| Cc1ccccc1NC(=O)COC(=O)c1ccc(S(C)(=O)=O)c([N+](=O)[O-])c1 | 3.66% |
| COc1ccc(-c2csc(C3=C(O)CN(Cc4ccc(Cl)cc4)C3=N)n2)cc1OC | 0.975% |
| O=C(Nc1ccccc1Sc1ccccc1)C1CCCO1 (centres unmarked) | 9.59% |
| OC1CCCCC1N1CCC(c2ccccc2)CC1 (centres unmarked) | 8.04% |
| O=c1c2ccccc2nc(-c2ccc(Cl)c(Cl)c2)n1O | 12.8% |
| CC(C)(C)NC(=O)C1CCN(c2ccc(S(=O)(=O)N3CCOCC3)cc2Cl)CC1 | 9.46% |
| CCc1nc2ccc(C(=O)O)cc2nc1CC | 10.2% |
| COc1ccc(CNC(=O)CCCc2ccccc2)cc1 | -0.319% |
| O=C(Nc1ccc2c(c1)OCCO2)C1CCN(c2nnnn2-c2ccccc2)CC1 | 16.4% |
| COc1ccc(Cl)c(OC)c1C(=O)NC(=O)Nc1nc(C)nc(C)n1 | 0.149% |
| Cc1ccc2nc(Cl)c(/C=N/n3c(C)nnc3C)cc2c1 | 6.34% |
| CCOC(=O)N1CCC(N2C(=O)c3ccccc3C2Nc2cc(OC)c(OC)c(OC)c2)CC1 (centres unmarked) | -0.303% |
| Nc1c(Cl)cc(-c2cn(CCC(=O)O)c(-c3ccc(Cl)nc3)n2)cc1Cl | 22.2% |
| O=C(NCC(=O)N(c1cccc(F)c1)C(C(=O)NC1CCCC1)c1cccnc1)c1ccco1 (centres unmarked) | -2.11% |
| COc1ccc(-c2c(NC(=O)c3ccco3)n(C)c3ccccc3c2=O)cc1 | -1.74% |
| CCOCc1c(C(=O)NCc2ccccc2CN2CCCC2)oc2ccccc12 | -60.1% |
| CC(Sc1ncn[nH]1)C(=O)NCc1ccccc1 (centres unmarked) | 10.8% |
| O=C(c1ccc2c(=O)n3c(nc2c1)CCCCC3)N1CCN(c2ccc(Cl)cc2)CC1 | -5.12% |
| COc1ccc2oc(-c3ccccc3)c(C(=O)O)c2c1 | 21.1% |
| O=C(NCc1cccnc1)C1CCN(S(=O)(=O)c2cccs2)CC1 | -10.7% |

| SMILES | hERG current change (%, negative = inhibition) at 1uM |
| --- | --- |
| Cc1ccc(NC2CCCN(C(=O)c3ccccn3)C2)cc1C (centres unmarked) | 15.7% |
| COc1ccc(CC(=O)Nc2c3c(nn2-c2cccc(C)c2C)CS(=O)C3)cc1OC (centres unmarked) | 16.2% |
| Cn1cnnc1SCc1ccc(C(=O)N=Nc2c(O)n(C)c3ccccc23)cc1 | 3.71% |
| CC1(C)Cc2c(sc(N)c2C#N)C(C)(C)N1 | 3.35% |
| CC(=O)Nc1ccc(OS(=O)(=O)c2ccc([N+](=O)[O-])cc2)cc1 | 7.12% |
| COc1cc(/C=N/n2cnnc2)ccc1OC(=O)c1ccncc1 | 12.2% |
| CN(C)S(=O)(=O)c1cccc(NC(=S)NC2CCCCC2)c1 | 11.4% |
| Cc1ccc([N+](=O)[O-])cc1NC(=O)c1cccs1 | 21.3% |
| CCOC(=O)c1c(C)c(C(=O)NCc2ccco2)c(C)n1C | 2.92% |
| CN1CCc2nc(NC(=O)COc3ccc(C#N)cc3)sc2C1 | 0.738% |
| O=C(Cn1c(CO)nc2ccccc21)NCc1ccc2c(c1)OCO2 | 2.96% |
| Oc1c(Br)cc(Br)cc1Br | 10.5% |
| Cn1cnc(S(=O)(=O)N2CCN(c3ccc(F)cc3)CC2)c1 | 3.15% |
| CCCCNC(=O)c1sc2ncnc(N3CCc4ccccc4C3)c2c1C | -29.2% |
| O=C(CCC1CC(=O)Nc2ccccc21)NCc1cccnc1 (centres unmarked) | 8.67% |
| CCCCNC(=O)COC(=O)c1c2c(nc3ccccc13)/C(=C/c1cccs1)CC2 | 0.752% |
| CC(=O)N[C@@H](CC(=O)N[C@H](CCC(=O)O)C(=O)O)C(=O)O | 3.48% |
| Cc1cccc(NC(=O)C23CCC(C)(C(=O)O2)C3(C)C)c1 (centres unmarked) | 14.8% |
| O=C(O)CCC(NS(=O)(=O)c1ccc(N2CCCC2=O)cc1)C(=O)O (centres unmarked) | 1.6% |
| C[C@@]12C(=O)N(Cc3ccc(-c4ccccc4)cc3)CC(=O)N1[C@H](/C=C/c1ccccc1)[C@@H]1C(=O)N(c3ccccc3)C(=O)[C@@H]12 | 4.62% |
| O=C(CNC(=O)c1ccccc1O)N/N=C/c1cc(Br)ccc1OC(=O)/C=C/c1ccco1 | 7.4% |
| COc1cccc(NC(=O)Cn2c(=O)n(-c3ccccc3)c(=O)c3oc4ccccc4c32)c1 | 10.6% |

| SMILES | hERG current change (%, negative = inhibition) at 1uM |
| --- | --- |
| Cc1nnc2c3ccccc3c(-c3cccs3)nn12 | 13.6% |
| CC(Sc1nnnn1C)C(=O)Nc1ccccc1-c1ccccc1 (centres unmarked) | 19.8% |
| Cc1cccc(-c2nnc(SC(C)C(=O)N3CCOCC3)o2)c1 (centres unmarked) | 13.1% |
| O=C(Oc1coc(CSc2nnc(NC(=O)c3cccs3)s2)cc1=O)c1ccccc1 | 14.4% |
| O=C(CN1c2ccccc2S(=O)(=O)c2ccccc21)NCc1ccc(F)cc1 | 1.88% |
| NS(=O)(=O)c1ccc(S(=O)(=O)N(CCc2ccccc2)Cc2ccccn2)cc1 | 11% |
| COc1ccc(NC(=O)CSCC(=O)N(C)Cc2ccc(Cl)c(Cl)c2)cc1 | 11.7% |
| Nc1cc(=O)[nH]c(SCc2csc(-c3ccccc3)n2)n1 | 3.84% |
| CC(C)(C)c1ccc(OCc2ccc(C(=O)N/N=C3\CC4CC=CC34)cc2)cc1 (centres unmarked) | 5.55% |
| Cc1nc2nc(SCc3nc4ccccc4[nH]3)[nH]c2cc1Br | 10% |
| COC(=O)C1=C(c2ccc(C(C)=O)cc2)C[C@@H]2CC[C@H]1N2C(=O)NC(C)C | 14.9% |
| COc1cc(S(=O)(=O)N2CCOCC2)c(OC)c(S(=O)(=O)N2CCOCC2)c1 | 13.1% |
| CN1C(C)(C)c2ccccc2OS1(=O)=O | 0.0609% |
| O=C(NC1=NCCS1)c1cc2ccccc2o1 | -20.6% |
| Cc1ccc(N/N=C(\C#N)C(=O)c2ccsc2)cc1 | 5.25% |
| CC(=O)Nc1ccc(C(=O)COC(=O)CCN2C(=O)C3CC=CCC3C2=O)cc1 (centres unmarked) | 15.4% |
| CC(=O)N(c1ccc(C(C)C)cc1)C1C=CS(=O)(=O)C1 (centres unmarked) | 8.44% |
| Cc1ccccc1NC(=O)c1[nH]cnc1C(=O)NN | 9.06% |
| CCCC(=O)Nc1ccc(C(=O)Nc2nc(CC(=O)OCC)cs2)cc1 | 10.8% |
| O=C(c1cc[n+]([O-])cc1)N1CCCC(N2CCN(c3cccc(C(F)(F)F)c3)CC2)C1 (centres unmarked) | 9.33% |
